Among all 48,000 compounds or so, about 550 (1.1%) were called active. Inconclusive results (about 4%) are left out. No stated cut-off is given here; in the data, active means potency below about 15 µM; inconclusive means mostly about 16 µM to 33 µM; inactive means weaker than that. This is one part of the list.

Consider 93 compounds from PubChem BioAssay AID360 (National Center for Advancing Translational Sciences (NCATS), 2006).
Potency means the concentration at half of the fitted maximal effect.

This experiment has as its target Lysosomal acid glucosylceramidase (Homo sapiens) (UniProt P04062). Nature of the experiment: Glucocerebrosidase.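 Further: the screen sought inhibitors.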 The note with it: purified enzyme, resorufin glucoside fluorescence (screen aimed at inhibitors), 20 min. The method in brief: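 Wild-type enzyme at 0.2 nM final in 50mM citric acid/KH2PO4, 10mM sodium taurocholate, 0.01% tween-20, pH 5.9, with resorufin beta-D-glucopyranoside at 30 uM final. Compounds titrated, 20 min at RT, red fluorescence read; AC50 from titration.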
UniProt P04062, sequence (P04062 whole entry, looked up): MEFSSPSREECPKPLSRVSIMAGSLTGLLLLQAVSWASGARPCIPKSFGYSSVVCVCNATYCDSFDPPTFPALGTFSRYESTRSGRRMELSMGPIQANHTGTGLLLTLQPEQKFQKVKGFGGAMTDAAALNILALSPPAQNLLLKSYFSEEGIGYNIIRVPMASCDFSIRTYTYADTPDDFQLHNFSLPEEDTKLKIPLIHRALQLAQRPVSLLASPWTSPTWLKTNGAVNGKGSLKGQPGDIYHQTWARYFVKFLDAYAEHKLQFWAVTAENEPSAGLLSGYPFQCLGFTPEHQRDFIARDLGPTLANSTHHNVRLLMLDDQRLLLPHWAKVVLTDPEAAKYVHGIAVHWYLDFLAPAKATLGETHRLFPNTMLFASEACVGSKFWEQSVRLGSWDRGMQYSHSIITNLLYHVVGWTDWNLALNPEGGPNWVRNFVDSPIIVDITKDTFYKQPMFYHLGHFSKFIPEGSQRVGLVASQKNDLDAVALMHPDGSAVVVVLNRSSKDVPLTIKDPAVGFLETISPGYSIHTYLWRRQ
For the compound `CCCCNC(=O)Nc1cnn(CC)c1C(N)=O`, the Potency is inactive: > 76.9 µM. Take `O=C(O)CCC(NC(=O)OCc1ccccc1)C(=O)O` (stereo not drawn): the Potency is inactive: > 76.9 µM. For `COc1ccccc1Nc1nc2c(s1)CCC2`, the Potency is inactive: > 76.9 µM. For the compound `CCS(=O)(=O)N1CCCC(C(=O)NC2CCCCC2C)C1` (stereo not drawn), the Potency is inactive: > 76.9 µM. The same measure for `CCc1nc(C)ccc1OCC(=O)O`: inactive: > 76.9 µM. The same measure for `Cc1sc2ncn(CCn3cnc4sc(C)c(C)c4c3=O)c(=O)c2c1C`: inactive: > 76.9 µM; for `CC(Oc1ccccc1Br)C(=O)N1CCc2ccccc21` (stereo not drawn): inactive: > 76.9 µM.

Consider `O=C(COC(=O)c1cccnc1)Nc1cccc(Cl)c1`, for which the Potency was inactive: > 76.9 µM.

As for `CCN(CC)S(=O)(=O)c1ccc(F)cc1`, the Potency is inactive: > 76.9 µM. As to `COC(=O)c1cc(NC(=O)c2c(Cl)nc3sccn23)cc(C(=O)OC)c1`, the Potency is inactive: > 76.9 µM. On to `O=C(O)C1CC(=O)N(Cc2cccnc2)C1` (stereo not drawn), for which the Potency is inactive: > 76.9 µM. The same measure for `CCC(c1nnnn1CCOC)N1CCN(C(=O)c2ccco2)CC1` (stereo not drawn): inactive: > 76.9 µM; for `COc1ccc(CCn2nnnc2C(c2ccccc2)N2CCN(C)CC2)cc1OC` (stereo not drawn): inactive: > 76.9 µM. As to `CN(C)c1ccc(P(=O)(OCc2ccccc2)C(O)c2ccncc2)cc1` (stereo not drawn), the Potency was inactive: > 76.9 µM. As for `O=C(Oc1ccc(-n2cnnn2)cc1)c1ccco1`, the figure is inactive: > 76.9 µM; as for `O=C(Nc1ccc(N2CCOCC2)cc1)C1CCN(S(=O)(=O)Cc2ccccc2)CC1`, inactive: > 76.9 µM; as for `Cc1ccccc1CN1CCN(CC(=O)NCc2ccc3c(c2)OCO3)C1=O`, inactive: > 76.9 µM.

Regarding `CCN(CC)C(=O)CSc1nnc(CCCCCNC(=O)OC(C)(C)C)o1`, the Potency was inactive: > 76.9 µM. Regarding `CCOCCOC(=O)C1=C(C)N(C)C(=O)NC1c1cc(Cl)c(O)c(OC)c1` (stereo not drawn), the Potency was inactive: > 76.9 µM. Regarding `Cc1cc(C)n(-c2nc3ccccc3nc2N2CCN(S(=O)(=O)c3ccc(F)c(C)c3)CC2)n1`, the Potency is inactive: > 76.9 µM. With `Cc1cc(=O)oc2cc(OCC(=O)N3CCCC(C)C3)ccc12` (stereo not drawn), the Potency is inactive: > 76.9 µM. The same measure for `O=C1N(CC(=O)N2CCc3ccccc32)CCN1Cc1ccc(Cl)cc1`: inactive: > 76.9 µM. With `O=C(NCc1ccccc1)c1cc(=O)nc2sc(-c3ccccc3)nn12`, the Potency is inactive: > 76.9 µM.

Consider `Cc1nc(=O)cc(-c2ccccc2)n1-c1ccccc1`, for which the Potency is inactive: > 76.9 µM.

For the compound `Cc1cc(C)nc(SCc2nnc(SCC(=O)Nc3ccc(Cl)c(C(F)(F)F)c3)o2)n1`, the Potency was inactive: > 76.9 µM.

For the compound `Brc1cccc(/C=N\n2cnnc2)c1`, the Potency is inactive: > 76.9 µM. The same measure for `Cc1ccc(-c2cc3nc(C)cc(NCc4ccco4)n3n2)cc1`: inactive: > 76.9 µM; for `OCC#CCSc1nnc(-c2ccncc2)o1`: inactive: > 76.9 µM; for `COc1ccc2cnn(-c3ccccc3)c(=O)c2c1OC`: inactive: > 76.9 µM. The same measure for `C=CCN1C(=O)C(CC(=O)O)SC1=Nc1c(C)n(C)n(-c2ccccc2)c1=O` (stereo not drawn): inactive: > 76.9 µM. As for `Nc1nnc(Cc2ccc(Cl)cc2)s1`, the figure is inactive: > 76.9 µM; as for `O=c1oc2ccccc2cc1-c1nnc(-c2cccc(Br)c2)o1`, inactive: > 76.9 µM; as for `O=S(=O)(NCc1ccccc1)c1cnc[nH]1`, inactive: > 76.9 µM. Take `Oc1ccc(C(=S)N2CCCCC2)cc1Cl`: the Potency was inactive: > 76.9 µM. As for `Cc1ccsc1C(C(=O)NC1CCCCC1)N(C(=O)Cc1cccs1)C1CC1` (stereo not drawn), the figure is inactive: > 76.9 µM; as for `O=C(CCCNS(=O)(=O)c1cccc2nsnc12)NC1CCCCC1`, inactive: > 76.9 µM; as for `O=C(CSc1nnc(-c2cccnc2)n1CCc1ccccc1)N1CCCCC1`, inactive: > 76.9 µM.

With `COc1ccc(Nc2cc(C(=O)NCCCN3CCN(C)CC3)c3ccccc3n2)cc1`, the Potency is inactive: > 76.9 µM.

On to `Cc1cn(C2OC(COC(=O)c3ccccc3)C(O)C2O)c(=O)[nH]c1=O` (stereo not drawn), for which the Potency was inactive: > 76.9 µM. On to `CC12CC3CC(C)(C1)CC(C(=O)Nc1nn[nH]n1)(C3)C2`, for which the Potency is inactive: > 76.9 µM.

As to `O=C(Cn1c(=O)oc2ccccc21)Nc1ccc(S(=O)(=O)N2CCCCC2)cc1`, the Potency was inactive: > 76.9 µM. As for `Nc1c(C(=O)Nc2ccccc2)sc2nc(-c3ccco3)ccc12`, the figure is inactive: > 76.9 µM. The same measure for `O=C(NC1CCCCC1)c1ccc(N2CCCC2=O)cc1`: inactive: > 76.9 µM; for `CC1(c2cccs2)CC(c2cccs2)=C(C#N)C(=O)N1` (stereo not drawn): inactive: > 76.9 µM. With `C#CC(C)(CC)NC(=O)Cn1nnc(-c2ccc(S(C)(=O)=O)cc2)n1` (stereo not drawn), the Potency is inactive: > 76.9 µM. For `Cc1ccc(C(=O)Nc2ccc3c(c2)OCO3)cc1S(=O)(=O)N1CCCCC1`, the Potency was inactive: > 76.9 µM. Take `CCCCNC(=O)COC(=O)c1cc2c(C)nn(-c3ccccc3)c2s1`: the Potency is inactive: > 76.9 µM. As for `CCOC(=O)C1CCN(C(=O)c2ccc(Cl)c(S(=O)(=O)N3CCOCC3)c2)CC1`, the Potency is inactive: > 76.9 µM.

Take `O=C(Cn1cnc2c(cnn2-c2ccc(F)cc2)c1=O)NCc1ccco1`: the Potency is inactive: > 76.9 µM. Regarding `CCOC(=O)C1=C(N)N2C(=O)C(C)SC2=C(C(=O)OC)C1c1ccccc1OC` (stereo not drawn), the Potency was inactive: > 76.9 µM.

For `COc1ccccc1-n1c(CNC(=O)c2ccc(S(=O)(=O)N3CCOCC3)cc2)n[nH]c1=S`, the Potency was inactive: > 76.9 µM. Regarding `CN(C)C(=O)NCc1ccc(S(N)(=O)=O)cc1`, the Potency is inactive: > 76.9 µM. As for `CCCNC(=O)c1c(N)n(-c2cccc(OC)c2)c2nc3ccccc3nc12`, the figure is inactive: > 76.9 µM; as for `COc1ccc(CN/C=C2\CCCCC2=O)cc1`, inactive: > 76.9 µM.

As to `O=C1CC(C(=O)NC2CCCCC2)C(c2ccccc2)O1` (stereo not drawn), the Potency was inactive: > 76.9 µM. The same measure for `O=C(Nn1c(C2CCC2)nc2ccccc2c1=O)C1CCC1`: inactive: > 76.9 µM; for `O=C(O)C1CC(c2cccc(Br)c2)=NO1` (stereo not drawn): inactive: > 76.9 µM.

As for `CCCOc1ccccc1C1CC(=O)Nc2cc3c(cc21)OCCO3` (stereo not drawn), the Potency was inactive: > 76.9 µM.

With `CC(O)CCC(=O)NCCNC(=O)CCC(C)O` (stereo not drawn), the Potency is inactive: > 76.9 µM. In the case of `CCCn1c(SCc2cc(=O)oc3ccc4ccccc4c23)n[nH]c1=O`, the Potency was inactive: > 76.9 µM. As for `CCOc1cc2c(C#N)c(N3CCOCC3)nc(N)c2c(N)n1`, the figure is inactive: > 76.9 µM; as for `COC(=O)CCN(c1ccccc1)S(=O)(=O)c1ccc(OC)cc1`, inactive: > 76.9 µM; as for `Cn1c(=O)cc(-c2ccccc2)c2ccccc21`, inactive: > 76.9 µM. In the case of `COC(=O)c1ccccc1NC(=O)CSc1nnc(CNS(=O)(=O)c2ccc(C)cc2)n1C`, the Potency was inactive: > 76.9 µM. For `N=c1sccn1CC(=O)Nc1ccccc1Cc1ccccc1`, the Potency is inactive: > 76.9 µM. The same measure for `CCC(=O)NC(=Nc1nc2ccccc2s1)NC(=O)CC`: inactive: > 76.9 µM; for `COC(=O)C1(S(=O)(=O)C2(C(=O)OC)CCCC2)CCCC1`: inactive: > 76.9 µM. Regarding `COc1ccc(C2(C(=O)NCCN3CCOCC3)CCOCC2)cc1`, the Potency is inactive: > 76.9 µM. As for `COc1ccc(NC(=O)CN2C(=O)C(C)Oc3ccccc32)cc1` (stereo not drawn), the figure is inactive: > 76.9 µM; as for `CCn1c(CCn2ccnc2C)n[nH]c1=S`, inactive: > 76.9 µM. The same measure for `COc1ccc(C2N(C(=O)c3ccccc3)CCN2C(=O)c2ccccc2)cc1`: “inactive”; for `O=C(c1c(F)c(F)c(F)c(F)c1F)N1CCc2ccccc21`: inactive: > 76.9 µM; for `COc1ccc2c(=O)c3c(=O)n(Cc4ccco4)c(C(C)C)nc3oc2c1`: inactive: > 76.9 µM.

For `C=CCNC(=O)C1CC(=O)N(c2ccc(OCC(=O)NCc3ccccc3)cc2)C1` (stereo not drawn), the Potency was inactive: > 76.9 µM. As for `CCC(=O)c1ccccc1OCCN1C(=O)NC(C)(C)C1=O`, the figure is inactive: > 76.9 µM; as for `CN1CC(=O)N(CC(=O)Nc2ccc(N(C)C)cc2)c2ccccc2C1=O`, inactive: > 76.9 µM; as for `Cc1ccc2nc(CSc3nnc(-c4ccco4)o3)cc(=O)n2c1`, inactive: > 76.9 µM.

As for `COCc1ccccc1Cn1cnc2c1c(=O)n(C)c(=O)n2C`, the Potency was inactive: > 76.9 µM. With `COCCNC(=O)c1sc2ncn(CC(=O)N3CCCCC3)c(=O)c2c1C`, the Potency result is “inactive”. The same measure for `CC(C)CCn1nnnc1C(c1ccc(F)cc1)N1CCN(C(=O)c2ccco2)CC1` (stereo not drawn): inactive: > 76.9 µM; for `COc1cc(S(=O)(=O)N2CCC(C(N)=O)CC2)c(C)cc1C`: inactive: > 76.9 µM. As for `CN1CCN(C(=O)c2ccccc2N(Cc2ccccc2)S(C)(=O)=O)CC1`, the figure is inactive: > 76.9 µM. Regarding `Cc1cc(NC(=O)CSc2nnc(-c3ccc(S(=O)(=O)N4CCCC4)cc3)n2C)no1`, the Potency was inactive: > 76.9 µM. As to `Nc1ccccc1SCc1cn2ccccc2n1`, the Potency result was “inactive”. As for `COc1cc(-c2nnc3sc(-c4cccs4)nn23)cc(OC)c1OC`, the figure is inactive: > 76.9 µM. As for `Cc1cc(C(C#N)c2ccccc2)n2ncnc2n1` (stereo not drawn), the figure is inactive: > 76.9 µM; as for `COc1ccc(C(=O)Nn2c(C3CCC3)nc3ccccc3c2=O)c(OC)c1`, inactive: > 76.9 µM. The same measure for `COC(=O)c1sc(N)c(C(=O)OC)c1CSc1nnc(-c2ccccc2Cl)n1C`: inactive: > 76.9 µM; for `COCCn1c(Cc2ccccc2)nnc1SCC(=O)Nc1cc(C)on1`: inactive: > 76.9 µM. As for `CCOC(=O)c1[nH]c(C)c(C(=O)OCC(=O)NC(=O)NC(C)(C)C)c1C`, the Potency was inactive: > 76.9 µM.

Consider `COCCCNC(=O)c1ccc(N2CCCC2)c(NS(=O)(=O)c2ccc(C)cc2)c1`, for which the Potency was inactive: > 76.9 µM.

`COc1ccc(OC)c(C(=O)CSc2nnc(-c3cccs3)o2)c1`: the Potency is inactive: > 76.9 µM.

With `COc1ccc(Cn2nnnc2C(c2cccs2)N2CCSCC2)cc1` (stereo not drawn), the Potency was inactive: > 76.9 µM.
